Laboratory results published in PubChem BioAssay AID1347165 (National Center for Advancing Translational Sciences (NCATS), 2019).
Out of some 220,000 compounds screened, about 5,700 (2.6%) were called active. Inconclusive results, whose numbers are uncertain, are shown with a selection of clear calls. Calls come from the whole dose curve; as a rule, active = well fitted inhibition curve with a large enough effect; inconclusive = small, poorly fitted or top-dose-only effect; inactive = no such curve, though single readings can be large or run the other way. Potencies beside an inconclusive call are fits to weak or partial responses and may not hold up.

target: Lysine-specific demethylase 5B (Homo sapiens) (UniProt Q9UGL1); assay: Primary screen for KDM5B Histone Demethylases FDH-coupled qHTS; conditions: FDH-coupled NADH fluorescence (FDH is formaldehyde dehydrogenase); activity change, negative = inhibition: at 57.7 µM (top of the series) unless noted; note: nearly all actives have a fitted effect of over 70% in size; for activity change, negative = inhibition: 0% is about no effect
Procedure, shortened: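 qHTS format, multiple compound concentrations. Buffer 50 mM HEPES pH 7.5/0.01% Tween-20; 200 nM KDM5BΔAP final; 10 min compound preincubation; substrate-mix levels 12.5 µM peptide, 25 µM α-KG, 0.25 mM NAD⁺; 30 min RT; ΔRFU.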
Potency is the fitted concentration of half-maximal effect; tags give direction and shape of the fitted curve.

UniProt Q9UGL1, sequence (Q9UGL1 whole entry, looked up): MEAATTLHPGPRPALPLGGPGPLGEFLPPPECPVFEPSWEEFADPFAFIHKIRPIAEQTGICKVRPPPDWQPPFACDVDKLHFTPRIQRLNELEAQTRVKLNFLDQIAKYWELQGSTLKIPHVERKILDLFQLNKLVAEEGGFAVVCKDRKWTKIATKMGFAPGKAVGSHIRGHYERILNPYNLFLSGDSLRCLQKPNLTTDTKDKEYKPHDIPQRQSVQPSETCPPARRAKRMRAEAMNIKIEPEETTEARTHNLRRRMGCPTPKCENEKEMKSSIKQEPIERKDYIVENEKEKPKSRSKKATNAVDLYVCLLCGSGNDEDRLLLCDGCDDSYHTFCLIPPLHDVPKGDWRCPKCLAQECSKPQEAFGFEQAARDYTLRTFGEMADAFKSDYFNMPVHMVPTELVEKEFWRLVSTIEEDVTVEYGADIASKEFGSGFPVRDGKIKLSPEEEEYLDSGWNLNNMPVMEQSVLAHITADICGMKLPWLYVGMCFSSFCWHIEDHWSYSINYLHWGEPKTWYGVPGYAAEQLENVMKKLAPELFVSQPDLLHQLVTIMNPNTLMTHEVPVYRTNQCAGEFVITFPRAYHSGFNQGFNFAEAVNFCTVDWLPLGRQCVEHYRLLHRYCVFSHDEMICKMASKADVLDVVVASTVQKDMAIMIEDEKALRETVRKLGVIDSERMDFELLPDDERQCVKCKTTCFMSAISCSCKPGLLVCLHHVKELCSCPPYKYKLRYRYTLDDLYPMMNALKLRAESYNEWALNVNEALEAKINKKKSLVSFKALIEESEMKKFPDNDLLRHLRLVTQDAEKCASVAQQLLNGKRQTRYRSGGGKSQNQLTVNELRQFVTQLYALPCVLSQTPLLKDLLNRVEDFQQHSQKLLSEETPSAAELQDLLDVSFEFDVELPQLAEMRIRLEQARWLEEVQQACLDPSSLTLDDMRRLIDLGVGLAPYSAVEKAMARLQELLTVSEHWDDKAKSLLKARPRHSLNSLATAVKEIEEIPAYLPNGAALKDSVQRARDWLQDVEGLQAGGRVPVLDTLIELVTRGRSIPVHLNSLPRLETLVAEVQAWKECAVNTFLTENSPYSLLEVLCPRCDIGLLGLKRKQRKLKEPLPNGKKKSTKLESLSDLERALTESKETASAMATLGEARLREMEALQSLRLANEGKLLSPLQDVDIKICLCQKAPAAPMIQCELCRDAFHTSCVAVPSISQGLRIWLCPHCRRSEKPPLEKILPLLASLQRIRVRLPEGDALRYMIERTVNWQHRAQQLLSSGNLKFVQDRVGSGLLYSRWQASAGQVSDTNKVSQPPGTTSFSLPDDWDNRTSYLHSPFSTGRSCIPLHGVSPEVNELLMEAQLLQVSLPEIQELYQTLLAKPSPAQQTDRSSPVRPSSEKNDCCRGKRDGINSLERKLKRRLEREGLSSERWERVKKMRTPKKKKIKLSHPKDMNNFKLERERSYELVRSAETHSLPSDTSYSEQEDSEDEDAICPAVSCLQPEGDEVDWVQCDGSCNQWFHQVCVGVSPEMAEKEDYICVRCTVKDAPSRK

Row | Structure (SMILES) | Potency | activity change, negative = inhibition
1 | O=C(c1ccc2ncccc2c1)N1CCc2c(nc3cc[nH]n3c2=O)C1 | inconclusive: 8.91 µM [inhibitor, full curve, poor fit] | 
2 | CCc1ccc2oc(C(=O)NCC(c3ccc(Cl)cc3)N3CCOCC3)c(C)c2c1 (stereo not drawn) | inconclusive: 25.1 µM [inhibitor, single point] | 
3 | Nc1ccccc1C(=O)NCCCN1CCN(c2cccc(Cl)c2)CC1 | inconclusive: 25.1 µM [inhibitor, partial curve, poor fit] | 
4 | CC(=O)c1ccc(N2CCN(C(=O)CCc3ncc(-c4c(F)cccc4F)o3)CC2)cc1 | inactive | 
5 | O=C1CN(Cc2ccccc2)CCN1c1ccc(Cl)nn1 | inactive | 
6 | O=C(O)CCC(=O)c1ccc2ccc3cccc4ccc1c2c34 | inconclusive: 25.1 µM [inhibitor, partial curve, poor fit] | 
7 | CCC(=O)Nc1ccccc1-c1nc2ccccc2n(Cc2cccc(Br)c2)c1=O | inconclusive: 7.94 µM [inhibitor, partial curve, poor fit] | 
8 | O=C(NCCN1CCOCC1)c1cc(-c2ccc(-c3ccccc3)cc2)nc2ccccc12 | inconclusive: 25.1 µM [inhibitor, partial curve, poor fit] | 
9 | O=C(Nc1ncc(Cc2cccc(C(F)(F)F)c2)s1)C1=Cc2ccccc2OC1 | inactive | 
10 | COc1cccc(-c2cc(-c3c(C)noc3C)c3cncn3c2)c1 | inconclusive: 39.8 µM [inhibitor, partial curve, poor fit] | 
11 | CC(=O)Nc1ccc(NC(=O)CCc2c(C)nc3c(c(C)nn3-c3ccc(C)cc3)c2C)cc1 | inconclusive: 2.24 µM [inhibitor, full curve, poor fit] | 
12 | COc1ccc(-c2cnc3[nH]cc(CC(=O)Nc4ccc(F)c(Cl)c4)c3c2)cc1 | inactive | 
13 | O=C(Nc1ccc2oc(-c3ccccc3F)nc2c1)c1ccccc1 | inconclusive: 39.8 µM [inhibitor, single point] | 
14 | Cc1[nH]c2ccc(F)cc2c1C(=O)CCl | inactive | 
15 | Cc1nc2c3cccnc3nn2c(C)c1CCC(=O)NCc1ccccc1Cl | inconclusive: 3.16 µM [inhibitor, full curve, poor fit] | 
16 | O=C(NC1CCCN(c2cc(-c3ccccc3)[nH]n2)C1)c1cccc2[nH]ccc12 (stereo not drawn) | active: 28.2 µM | 
17 | CC(=O)c1ccc(NC(=O)c2sc(-n3nc(C)c(CCC(C)C)c3C)nc2C)cc1 | inconclusive: 4.47 µM [inhibitor, partial curve, poor fit] | 
18 | O=C1CCCN1CCCNC(=S)Nc1ccc(Nc2ccccc2)cc1 | inconclusive: 39.8 µM [inhibitor, partial curve, poor fit] | 
19 | CCOc1cc(Cn2c(-c3ccc(O)c(OCC)c3)nc3ccccc32)ccc1O | inconclusive: 17.8 µM [inhibitor, single point] | 
20 | Cc1cc(-n2c(C)cc(-c3csc(N)n3)c2C)no1 | inactive | 
21 | O=C(CC1C(=O)OCCN1Cc1ccccc1)Nc1cccc(Cl)c1 (stereo not drawn) | inconclusive: 28.2 µM [inhibitor, partial curve, poor fit] | 
22 | Cc1cc(C)cc(NC(=O)c2nnn(Cc3cccc(Br)c3)c2N)c1 | inconclusive: 31.6 µM [inhibitor, partial curve, poor fit] | 
23 | CCCCC(=O)N1CC(=O)Nc2ccc(F)cc2C1c1ccc(F)cc1 (stereo not drawn) | inconclusive: 2.82 µM [inhibitor, partial curve, poor fit] | 

Row | Structure (SMILES) | Potency | activity change, negative = inhibition
24 | O=C(COc1ccc2nc3n(c(=O)c2c1)CCC3)NC1CCCCCC1 | inactive | 
25 | CC(=O)Nc1ccc(S(=O)(=O)Nc2cc3c(cc2SC2CCCCC2)n(C)c(=O)n3C)cc1 | inactive | 
26 | COc1cccc(CNC(=O)c2c(C)noc2-c2cccs2)c1 | inconclusive: 25.1 µM [inhibitor, single point] | 
27 | CCCOc1cccc(C(=O)Nc2cc(-c3nc4ccccc4[nH]3)ccc2C)c1 | inconclusive: 25.1 µM [inhibitor, single point] | 
28 | O=C(Nc1cc(C(F)(F)F)ccc1F)c1cccc(COc2ccc(Cl)cc2)c1 | inactive | 
29 | COc1ccc(C2=NOC3(CCN(Cc4cncs4)C3)C2)cc1 (stereo not drawn) | inactive | 
30 | O=C(CCC[C@H]1NC[C@@H]2C[C@H]1CN(Cc1ccccc1)C2)Nc1ccc(N2CCOCC2)cc1 | inconclusive: 25.1 µM [inhibitor, single point] | 
31 | CC(C[N+](C)(C)C)OC(=O)c1ccc2c(c1)OCO2 (stereo not drawn) | inactive | 
32 | CCN(C(=O)Cn1cccc1-c1nc(-c2ccc(OC)c(F)c2)no1)c1cccc(C)c1 | active: 28.2 µM | 
33 | O=C(CN1C(=O)c2ccccc2C1=O)Nc1cnc2ccccc2c1 | inactive | 
34 | CCOc1ccc(CN2C(=O)c3ccccc3Sc3ccc(C(=O)NCc4ccc5c(c4)OCO5)cc32)cc1 | inconclusive: 15.8 µM [inhibitor, single point] | 
35 | CC1=CC(C)(C)N=C(Nc2nc(C)c3cc(C)cc(C)c3n2)N1 | inconclusive: 31.6 µM [inhibitor, single point] | 
36 | CNCC(=O)N[C@H]1CCN2C(=O)c3cc(-c4cc(Cl)ccc4OC)ccc3NC(=O)[C@@H]2C1 | inconclusive: 17.8 µM [inhibitor, single point] | 
37 | CC1Oc2ccccc2C=C1/C=C/C(=O)c1cccc(O)c1 (stereo not drawn) | inactive | 
38 | COc1ccc(OC2CCN(S(=O)(=O)c3cccc(F)c3)CC2)cc1 |  | inconclusive: -35.3% [inhibitor]
39 | Cc1ccc2oc(=O)n(CCNC(=O)Nc3ccccc3C)c2c1 | inactive | 
40 | COc1ccc(-c2nc(/C=C/C(=O)NC(C)C3CC4CCC3C4)cs2)cc1 (stereo not drawn) | inconclusive: 35.5 µM [inhibitor, partial curve, poor fit] | 
41 | CC(C)C(=O)N1CCCCCNC(=O)[C@H]2C[C@H](C(=O)N3CCc4ccccc4C3)C[C@H]21 | inconclusive: 6.31 µM [inhibitor, partial curve, poor fit] | 
42 | Cc1occc1-c1nnc(SCc2cc(-c3cccs3)on2)o1 | inactive | 
43 | COc1ccc2c(c1)OCC(C(=O)NCCCN1CCCc3ccccc31)C2 (stereo not drawn) | inconclusive: 11.2 µM [inhibitor, partial curve] | 
44 | CCN(C)C(C)C(=O)N1CCc2onc(-c3ccc(C(F)(F)F)cc3)c2C1 (stereo not drawn) | inactive | 
45 | COc1ccc(NC(=O)C2=C(C)Nc3ncnn3C2c2sccc2C)cc1 (stereo not drawn) | inactive | 
46 | NC(=O)Cc1c[nH]c2ncc(-c3cccc(F)c3)cc12 | active: 31.6 µM | 

Row | Structure (SMILES) | Potency | activity change, negative = inhibition
47 | Cc1ccc(NC(=O)C2CCCN(S(=O)(=O)c3ccccc3)CCC(=O)NCC2)cc1 (stereo not drawn) | inactive | 
48 | Cc1ccc(NC(=O)CSc2n[nH]c(-c3ccccc3)n2)cc1C | inactive | 
49 | CC(OC(=O)C12CC3CC(CC(C3)C1)C2)C(=O)Nc1ccc(Oc2ccccc2)cc1 (stereo not drawn) | inactive | 
50 | O=C(NC1CCCC1)c1ccc(CSc2nc3cccnc3n2Cc2cccc(F)c2)cc1 | inconclusive: 39.8 µM [inhibitor, single point] | 
51 | Cc1ccc(Cl)cc1-n1ncc2c(=O)n(CC(N)=O)cnc21 | inconclusive: 39.8 µM [inhibitor, single point] | 
52 | Clc1ccccc1CNc1n[nH]c(-c2cccs2)n1 | inconclusive: 25.1 µM [inhibitor, partial curve, poor fit] | 
53 | CC(C)(C)C1CCc2nc(NC(=O)c3cccc(Cl)c3)sc2C1 (stereo not drawn) | inconclusive: 17.8 µM [inhibitor, partial curve, poor fit] | 
54 | CNC(=O)C(C)(C)N1CCC[C@H]1C(=O)N1CCc2ccccc2C1 | inconclusive: 14.1 µM [inhibitor, partial curve, poor fit] | 
55 | CC(=O)Nc1ccc(S(=O)(=O)N2C[C@@H]3C[C@H](C2)c2ccc(-c4ccc(OC(F)(F)F)cc4)c(=O)n2C3)cc1 | inconclusive: 22.4 µM [inhibitor, single point] | 
56 | Cc1cccc(NC(=O)c2nc(-c3ccccc3)oc2C)n1 | inconclusive: 39.8 µM [inhibitor, partial curve, poor fit] | 
57 | O=C(CSc1nnc(-c2ccccc2Br)n1-c1ccccc1)c1ccc(F)cc1 | inconclusive: 1.12 µM [inhibitor, partial curve, poor fit] | 
58 | NC(=O)Cn1ccc2cc(OCC3CCN(C(=O)C4CCCC4)CC3)cnc21 | active: 35.5 µM | 
59 | Cc1nc2ccn(Cc3cccnc3)c(=O)c2cc1C(=O)NCc1ccccc1 | inconclusive: 35.5 µM [inhibitor, partial curve, poor fit] | 
60 | Cc1nn(-c2ncccn2)c2c1C(c1ccc(OCC(N)=O)cc1)CC(=O)N2 (stereo not drawn) | inactive | 
61 | O=C(NCCN1CCCC1)c1nnn2cc(-c3ccccc3)[nH]c(=O)c12 | active: 2.51 µM | 
62 | COc1ccc(-c2c(C#N)c(SCC(=O)Nc3ccc(C)c(C)c3)nc(C)c2C(=O)Nc2ccc(Cl)cc2)cc1 | inconclusive: 7.94 µM [inhibitor, partial curve, poor fit] | 
63 | COc1cccc(C(=O)/C(=C/c2cccs2)c2nc3ccccc3o2)c1 | inactive | 
64 | COc1ccc(-c2noc(-c3nc(C)no3)n2)cc1F | inconclusive: 20 µM [inhibitor, single point] | 
65 | Cn1ccc2c(C(=O)NCCC(N)=O)nc(-c3cccc(C(F)(F)F)c3)cc21 | active: 14.1 µM | 
66 | CC(NC(=O)c1cc(-c2ccc(Br)cc2)n[nH]1)c1ccc(F)cc1 (stereo not drawn) | inactive | 
67 | CCc1cc(=O)oc2cc(C)cc(OCC(C)=O)c12 | inconclusive: 25.1 µM [inhibitor, partial curve, poor fit] | 
68 | CCOP(=O)(OCC)c1nc(-c2ccc(Cl)cc2)oc1NCc1cccnc1 | inconclusive: 5.01 µM [inhibitor, full curve, poor fit] | 
